Changes are numbered by the printed parent chain; changes in the protein carry UniProt numbers. Some of the results follow.
B1: UAUUAAA (DNA:RNA)
RNA: GGGAGACCGGAAUUCAGAUUGUCCUAUUAAAUUAAAUCCCGUCGUAGCCACCA
DNA 1: CAATCTGAATTCCGGTCTCCC
DNA 2: TGGTGGCTACGACGGGATT
B2: AAUACUG (DNA:RNA)
RNA: B1 RNA with U25A, U28A, A29C, A30U, A31G
DNA 1: CAATCTGAATTCCGGTCTCCC
DNA 2: TGGTGGCTACGACGGGATT
B3: CGGAUUA (DNA:RNA)
RNA: B1 RNA with U25C, A26G, U27G, U28A, A29U, A30U
DNA 1: CAATCTGAATTCCGGTCTCCC
DNA 2: TGGTGGCTACGACGGGATT
B4: GCGAGCC (DNA:RNA)
RNA: GGGAGACCGGAAUUCAGAUUGUCCGCGAGCCUUAAAUCCCGUCGUAGCCACCA
DNA 1: CAATCTGAATTCCGGTCTCCC
DNA 2: TGGTGGCTACGACGGGATT
B5: ACUUACU (DNA:RNA)
RNA: B1 RNA with U25A, A26C, A30C, A31U
DNA 1: CAATCTGAATTCCGGTCTCCC
DNA 2: TGGTGGCTACGACGGGATT
B6: UAUACAG (DNA:RNA)
RNA: B1 RNA with U28A, A29C, A31G
DNA 1: CAATCTGAATTCCGGTCTCCC
DNA 2: TGGTGGCTACGACGGGATT
B7: CUCUGGG (DNA:RNA)
RNA: B4 RNA with G25C, C26U, G27C, A28U, C30G, C31G
DNA 1: CAATCTGAATTCCGGTCTCCC
DNA 2: TGGTGGCTACGACGGGATT
B8: AUGUAAA (DNA:RNA)
RNA: B1 RNA with U25A, A26U, U27G
DNA 1: CAATCTGAATTCCGGTCTCCC
DNA 2: TGGTGGCTACGACGGGATT
B9: ACGUAGA (DNA:RNA)
RNA: B1 RNA with U25A, A26C, U27G, A30G
DNA 1: CAATCTGAATTCCGGTCTCCC
DNA 2: TGGTGGCTACGACGGGATT
B10: GGGACUU (DNA:RNA)
RNA: B4 RNA with C26G, G29C, C30U, C31U
DNA 1: CAATCTGAATTCCGGTCTCCC
DNA 2: TGGTGGCTACGACGGGATT
B11: GAUUGCU (DNA:RNA)
RNA: B4 RNA with C26A, G27U, A28U, C31U
DNA 1: CAATCTGAATTCCGGTCTCCC
DNA 2: TGGTGGCTACGACGGGATT
B12: AACUCUG (DNA:RNA)
RNA: B1 RNA with U25A, U27C, A29C, A30U, A31G
DNA 1: CAATCTGAATTCCGGTCTCCC
DNA 2: TGGTGGCTACGACGGGATT
B13: CGGCCUU (DNA:RNA)
RNA: B4 RNA with G25C, C26G, A28C, G29C, C30U, C31U
DNA 1: CAATCTGAATTCCGGTCTCCC
DNA 2: TGGTGGCTACGACGGGATT
B14: UUAACGA (DNA:RNA)
RNA: B1 RNA with A26U, U27A, U28A, A29C, A30G
DNA 1: CAATCTGAATTCCGGTCTCCC
DNA 2: TGGTGGCTACGACGGGATT
B15: CACAACC (DNA:RNA)
RNA: B4 RNA with G25C, C26A, G27C, G29A
DNA 1: CAATCTGAATTCCGGTCTCCC
DNA 2: TGGTGGCTACGACGGGATT
B16: UCAAGGG (DNA:RNA)
RNA: B4 RNA with G25U, G27A, C30G, C31G
DNA 1: CAATCTGAATTCCGGTCTCCC
DNA 2: TGGTGGCTACGACGGGATT
B17: GUGGUCU (DNA:RNA)
RNA: B4 RNA with C26U, A28G, G29U, C31U
DNA 1: CAATCTGAATTCCGGTCTCCC
DNA 2: TGGTGGCTACGACGGGATT
B18: CUGCGCU (DNA:RNA)
RNA: B4 RNA with G25C, C26U, A28C, C31U
DNA 1: CAATCTGAATTCCGGTCTCCC
DNA 2: TGGTGGCTACGACGGGATT
B19: GGUUUGC (DNA:RNA)
RNA: B4 RNA with C26G, G27U, A28U, G29U, C30G
DNA 1: CAATCTGAATTCCGGTCTCCC
DNA 2: TGGTGGCTACGACGGGATT
B20: AAGGACU (DNA:RNA)
RNA: B4 RNA with G25A, C26A, A28G, G29A, C31U
DNA 1: CAATCTGAATTCCGGTCTCCC
DNA 2: TGGTGGCTACGACGGGATT
B21: GUUUGGG (DNA:RNA)
RNA: B4 RNA with C26U, G27U, A28U, C30G, C31G
DNA 1: CAATCTGAATTCCGGTCTCCC
DNA 2: TGGTGGCTACGACGGGATT
B22: UGGCGAU (DNA:RNA)
RNA: B4 RNA with G25U, C26G, A28C, C30A, C31U
DNA 1: CAATCTGAATTCCGGTCTCCC
DNA 2: TGGTGGCTACGACGGGATT
B23: GCCCCCC (DNA:RNA)
RNA: B4 RNA with G27C, A28C, G29C
DNA 1: CAATCTGAATTCCGGTCTCCC
DNA 2: TGGTGGCTACGACGGGATT
B24: AAUAACG (DNA:RNA)
RNA: B1 RNA with U25A, U28A, A30C, A31G
DNA 1: CAATCTGAATTCCGGTCTCCC
DNA 2: TGGTGGCTACGACGGGATT
B25: UGAGUGC (DNA:RNA)
RNA: B4 RNA with G25U, C26G, G27A, A28G, G29U, C30G
DNA 1: CAATCTGAATTCCGGTCTCCC
DNA 2: TGGTGGCTACGACGGGATT
B26: UCCGUUA (DNA:RNA)
RNA: B1 RNA with A26C, U27C, U28G, A29U, A30U
DNA 1: CAATCTGAATTCCGGTCTCCC
DNA 2: TGGTGGCTACGACGGGATT
B27: GUACAGU (DNA:RNA)
RNA: B4 RNA with C26U, G27A, A28C, G29A, C30G, C31U
DNA 1: CAATCTGAATTCCGGTCTCCC
DNA 2: TGGTGGCTACGACGGGATT
B28: CCAGACU (DNA:RNA)
RNA: B4 RNA with G25C, G27A, A28G, G29A, C31U
DNA 1: CAATCTGAATTCCGGTCTCCC
DNA 2: TGGTGGCTACGACGGGATT
B29: UGAUCUG (DNA:RNA)
RNA: B1 RNA with A26G, U27A, A29C, A30U, A31G
DNA 1: CAATCTGAATTCCGGTCTCCC
DNA 2: TGGTGGCTACGACGGGATT
B30: GCAAGCU (DNA:RNA)
RNA: B4 RNA with G27A, C31U
DNA 1: CAATCTGAATTCCGGTCTCCC
DNA 2: TGGTGGCTACGACGGGATT
B31: AGAUUGA (DNA:RNA)
RNA: B1 RNA with U25A, A26G, U27A, A29U, A30G
DNA 1: CAATCTGAATTCCGGTCTCCC
DNA 2: TGGTGGCTACGACGGGATT

Molecular target: T1, RBFOX1 RRM RbFoxmut (Fox-RRM*) (Homo sapiens, UniProt Q9NWB1 109-208, R118D;E147R;N151S;E152T)
T1 sequence: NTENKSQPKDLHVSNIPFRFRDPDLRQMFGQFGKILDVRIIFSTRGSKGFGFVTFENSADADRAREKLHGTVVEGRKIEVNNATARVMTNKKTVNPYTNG
Assay: EMSA; HiTS-Eq, 1 nM pool, 10 min; buffer printed only for the single-RNA assays: 10 mM Tris pH 7.5, 150 mM NaCl, 3.4 mM EDTA, 0.001% NP-40, 30 C
Conditions: tags: His6 N-terminal (pET28a); label: 5' 32P
Procedure, shortened: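 A pool of RNA with 7 randomized nucleotides, 5′-radiolabelled and with DNA-annealed flanks, was equilibrated at 1 nM for 10 min in 50 µL with purified RbFox RRM, wild type or mutant, across increasing protein concentrations. Free RNA was separated by 8% native PAGE, excised, reverse-transcribed, barcoded by PCR and sequenced. Relative association constants were obtained from read-count changes of each RNA species versus the control reaction and normalised to the cognate motif.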

Binder	binding signal
B1	0.0847 KA relative to UGCAUGU
B2	0.0774 KA relative to UGCAUGU
B3	0.107 KA relative to UGCAUGU
B4	0.115 KA relative to UGCAUGU
B5	0.114 KA relative to UGCAUGU
B6	0.0616 KA relative to UGCAUGU
B7	0.0876 KA relative to UGCAUGU
B8	0.169 KA relative to UGCAUGU
B9	0.17 KA relative to UGCAUGU
B10	0.0648 KA relative to UGCAUGU
B11	0.141 KA relative to UGCAUGU
B12	0.0393 KA relative to UGCAUGU
B13	0.056 KA relative to UGCAUGU
B14	0.0397 KA relative to UGCAUGU
B15	0.0569 KA relative to UGCAUGU
B16	0.08 KA relative to UGCAUGU

Binder	binding signal
B17	0.115 KA relative to UGCAUGU
B18	0.103 KA relative to UGCAUGU
B19	0.199 KA relative to UGCAUGU
B20	0.0566 KA relative to UGCAUGU
B21	0.122 KA relative to UGCAUGU
B22	0.0717 KA relative to UGCAUGU
B23	0.0323 KA relative to UGCAUGU
B24	0.0895 KA relative to UGCAUGU
B25	0.112 KA relative to UGCAUGU
B26	0.0875 KA relative to UGCAUGU
B27	0.0854 KA relative to UGCAUGU
B28	0.0631 KA relative to UGCAUGU
B29	0.0664 KA relative to UGCAUGU
B30	0.0581 KA relative to UGCAUGU
B31	0.117 KA relative to UGCAUGU

Source: publication PMC9911399, “Two distinct binding modes provide the RNA-binding protein RbFox with extraordinary sequence specificity”
